This passage reports AUC and IC50 results from the supplement of paper PMC4967469.

Common to all, as to experiment: Viability of human cancer cell lines after 72 h of drug (GDSC screen)
Compound in assay [1]: CC(C)c1ccccc1Cc1cc(C(=O)Nc2ccc(S(=O)(=O)c3ccccc3C(C)(C)C)cc2)c(O)c(O)c1O [TW-37]
The note with it: top dose 5 µM. Here is the method: (§1)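 Human cancer cell lines in 384-well plates, medium with 10% serum, drug for 72 h over a 256-fold dose range (nine 2-fold or five 4-fold steps up to the top dose). Adherent lines were fixed and stained with the nucleic acid dye Syto60, suspension lines read with resazurin; signal relative to control wells, capped at 0 and 100%. One two-parameter sigmoid per drug and line, fitted in a mixed model over all curves with the slope shared within a line.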

Compound in assay [2]: CC(O)(CS(=O)(=O)c1ccc(F)cc1)C(=O)Nc1ccc(C#N)c(C(F)(F)F)c1 [Bicalutamide]
The note with it: top dose inferred. Here is the method:
as §1

Compound in assay [3]: CCNC(=O)c1noc(-c2cc(C(C)C)c(O)cc2O)c1-c1ccc(CN2CCOCC2)cc1 [AUY922]
The note with it: top dose 0.256 µM; top dose inferred. As for the experimental part: as §1

Compound in assay [4]: O=S(=O)(c1ccccc1)N(CC(F)(F)F)c1ccc(C(O)(C(F)(F)F)C(F)(F)F)cc1 [T0901317]
Conditions: top dose 10.24 µM; top dose inferred. Here is the method:
as §1

Compound in assay [5]: C/C(O)=C(\C#N)C(=O)Nc1cc(Br)ccc1Br [LFM-A13]
Conditions: top dose 16 µM; top dose inferred. Here is the method:
as §1

Compound in assay [6]: Cc1cn(-c2cc(NC(=O)c3ccc(C)c(Nc4nccc(-c5cccnc5)n4)c3)cc(C(F)(F)F)c2)cn1 [Nilotinib]
The note with it: top dose 2 µM. Here is the method:
as §1

Compound in assay [7]: S=C(NCc1ccc2c(c1)OCO2)N1CCN(c2ncnc3c2oc2ccccc23)CC1 [MP470]
Conditions: top dose 20 µM; top dose inferred. As for the experimental part:
as §1

Compound in assay [8]: Cc1ccc(Nc2cc(-c3cccc(N4C(=O)c5ccccc5C4=O)c3)ncn2)cc1NS(C)(=O)=O [KIN001-270]
Conditions: top dose 20 µM; top dose inferred. As for the experimental part: as §1

Compound in assay [9]: Nc1ccn([C@@H]2O[C@H](CO)[C@@H](O)C2(F)F)c(=O)n1 [Gemcitabine]
Conditions: top dose 1.024 µM. Here is the method:
as §1

Setting [10] is: top dose 1.024 µM, screen: GDSC drug entry 150.
Setting [11] is: top dose 10 µM, screen: GDSC drug entry 1502.

The IC50 comes from the fitted curve, where viability falls to half of the control; fits outside the tested doses are given as limits. AUC, from the same fit, is the share of area under the viability curve across the 256-fold dose range; the more sensitive the line, the further below 1. For some assays here: Any top dose called inferred comes from the curve model; the source does not state it. For some assays here: An entry number marks a drug with two screens in the source, which often give different values. Where only a bound is given, the exact number is not on record here.

The IC50 is the concentration that gives 50% inhibition. Regarding HT-1376 (bladder, adherent), the AUC was 0.762 in assay [1]; 0.982 in assay [2] (setting [10]); 0.952 in assay [2] (setting [11]); 0.625 in assay [3]; 0.985 in assay [4]; 0.976 in [5]. Further, the AUC in assay [6] is 0.956; in [7] it was 0.487; in assay [8], 0.985; in assay [9] it was 0.714. In addition, the IC50 was 2.09 µM in assay [1]; more than 1.02 µM in assay [2] (setting [10]); more than 10 µM in [2] (setting [11]); 0.0378 µM in assay [3]; more than 10.2 µM in [4]; more than 16 µM in [5]. Besides, the IC50 is more than 2 µM in assay [6], 1.14 µM in assay [7], more than 20 µM in assay [8] and 0.291 µM in [9].

Consider CAL-78 (chondrosarcoma, adherent), for which the AUC in assay [1] came to 0.611; in assay [2] (setting [10]) it was 0.986; in [2] (setting [11]), 0.982; in [3], 0.882; in assay [4], 0.986; in [5], 0.97. The AUC in assay [6] is 0.986; in assay [7] it was 0.975; in [8], 0.986; in assay [9] it was 0.986. Also, the IC50 is 0.66 µM in assay [1]; more than 1.02 µM in assay [2] (setting [10]); more than 10 µM in assay [2] (setting [11]); more than 0.256 µM in assay [3]; more than 10.2 µM in [4]; more than 16 µM in assay [5]. In addition, the IC50 in assay [6] was more than 2 µM; in assay [7], more than 20 µM; in assay [8], more than 20 µM; in [9], more than 1.02 µM.

Turning to UACC-62 (melanoma, adherent), the AUC in [1] was found to be 0.309; in assay [2] (setting [10]), 0.987; in assay [2] (setting [11]), 0.965; in assay [3], 0.747; in [4] it was 0.98; in assay [5], 0.957. For the same cell line, the AUC stood at 0.983 in assay [6], 0.952 in assay [7], 0.978 in assay [8] and 0.829 in [9]. For the same cell line, the IC50 was 0.0915 µM in assay [1]; more than 1.02 µM in [2] (setting [10]); more than 10 µM in assay [2] (setting [11]); 0.0808 µM in [3]; more than 10.2 µM in assay [4]; more than 16 µM in assay [5]. The IC50 in [6] is more than 2 µM; in [7] it was more than 20 µM; in assay [8], more than 20 µM; in assay [9], 0.628 µM.

Consider HO-1-u-1 (head and neck, adherent), for which the AUC in assay [1] stood at 0.572; in assay [2] (setting [10]) it was 0.987; in assay [2] (setting [11]) it was 0.978; in [3] it was 0.745; in assay [4] it was 0.983; in [5], 0.986. Moreover, the AUC turned out to be 0.966 in [6], 0.949 in [7], 0.982 in assay [8] and 0.616 in assay [9]. The IC50 in assay [1] is 0.486 µM; in assay [2] (setting [10]) it was more than 1.02 µM; in assay [2] (setting [11]), more than 10 µM; in [3], 0.0778 µM; in assay [4], more than 10.2 µM; in assay [5], more than 16 µM. In addition, the IC50 in assay [6] is more than 2 µM; in [7], more than 20 µM; in assay [8] it was more than 20 µM; in assay [9], 0.132 µM.

For SU8686 (pancreas, adherent), the AUC in assay [1] turned out to be 0.649; in assay [2] (setting [10]) it was 0.985; in assay [2] (setting [11]), 0.983; in assay [3] it was 0.604; in [4] it was 0.984; in assay [5] it was 0.973. In addition, the AUC in [6] was 0.984; in assay [7], 0.953; in assay [8], 0.979; in assay [9], 0.453. The IC50 in [1] is 0.857 µM; in [2] (setting [10]), more than 1.02 µM; in assay [2] (setting [11]) it was more than 10 µM; in assay [3], 0.0321 µM; in assay [4], more than 10.2 µM; in assay [5], more than 16 µM. Further, the IC50 in assay [6] is more than 2 µM; in assay [7], more than 20 µM; in assay [8] it was more than 20 µM; in assay [9] it was 0.047 µM.

For the cell line CAL-85-1 (breast, adherent), the AUC in assay [1] worked out at 0.73; in [2] (setting [10]) it was 0.979; in assay [2] (setting [11]) it was 0.964; in assay [3] it was 0.414; in [4] it was 0.966; in [5], 0.941. Moreover, the AUC worked out at 0.934 in [6], 0.929 in [7], 0.951 in assay [8] and 0.639 in [9]. The IC50 in assay [1] was 1.73 µM; in assay [2] (setting [10]), more than 1.02 µM; in assay [2] (setting [11]) it was more than 10 µM; in [3], 0.00871 µM; in assay [4], more than 10.2 µM; in assay [5], more than 16 µM. For the same cell line, the IC50 was more than 2 µM in assay [6], more than 20 µM in assay [7], more than 20 µM in [8] and 0.174 µM in assay [9].

For JHH-2 (liver, adherent), the AUC worked out at 0.719 in assay [1]; 0.982 in [2] (setting [10]); 0.981 in [2] (setting [11]); 0.87 in assay [3]; 0.984 in assay [4]; 0.982 in assay [5]. Also, the AUC in [6] worked out at 0.986; in assay [7], 0.969; in [8] it was 0.983; in [9] it was 0.957. Further, the IC50 in [1] was 1.37 µM; in assay [2] (setting [10]), more than 1.02 µM; in assay [2] (setting [11]) it was more than 10 µM; in assay [3], more than 0.256 µM; in assay [4], more than 10.2 µM; in assay [5] it was more than 16 µM. The IC50 is more than 2 µM in assay [6], more than 20 µM in assay [7], more than 20 µM in assay [8] and more than 1.02 µM in [9].
